Data as given in article PMC4526114, “Structure and vascular function of MEKK3–cerebral cavernous malformations 2 complex” (Nature Communications, 2015).
Results are given in words; binding and its absence hold for the method and conditions named. For some of these results: Binding seen in cells or lysates may run through a third protein. Some results given as binding are weak or reduced against the parent protein; the word gives no strength. For some of these results: Where a sequence is shown, tags or fusion partners need not be part of it.

How the values were obtained:
[1] = molecular target: T1, MEKK3^NPB1 (human, UniProt Q99759 1-124); test: ITC; CCM2^HHD injected into MEKK3^NPB1 in 20 2.5-μl injections at 25 °C; 150 mM NaCl, 50 mM HEPES pH 7.5; nano-ITC; 'observed Kd'; both purified
T1 construct: MEKK3 (MAP3K3), human, residues 1–124 (N-terminal helix and PB1 domain); also called N terminus of MEKK3; 6 × His–MEKK3^NPB1 (before cleavage); not shown: His6, N-terminal, cleaved
T1 sequence: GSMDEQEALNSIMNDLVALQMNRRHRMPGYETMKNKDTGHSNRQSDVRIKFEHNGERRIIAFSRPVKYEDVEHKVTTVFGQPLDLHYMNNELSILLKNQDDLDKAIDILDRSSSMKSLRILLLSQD

[2] = molecular target: Flag-tagged full-length CCM2 (human) (UniProt Q9BSQ5); test: co-IP; HA-tagged MEKK3 or mutants cotransfected with Flag-tagged CCM2 or mutants into 293T cells; lysis 24 h later in 20 mM Tris-HCl pH 7.4, 250 mM NaCl, 0.5% NP-40; Flag–CCM2 immunoprecipitated with anti-Flag M2; immunoblot with anti-HA and anti-Flag
[3] = molecular target: T2, GST–MEKK3^NPB1 (human) (UniProt Q99759); test: condition: 60 μg purified CCM2 in a total 500 μl volume; pull-down; GST fusions of MEKK3 immobilised on glutathione Sepharose-4B beads; 5 μl bead slurry and 60 μg purified CCM2 in 500 μl, 4 °C, 2 h; 150 mM NaCl, 50 mM Tris pH 7.5, 0.1% Triton-X100; Coomassie-stained SDS–PAGE of washed beads; both purified
T2 sequence: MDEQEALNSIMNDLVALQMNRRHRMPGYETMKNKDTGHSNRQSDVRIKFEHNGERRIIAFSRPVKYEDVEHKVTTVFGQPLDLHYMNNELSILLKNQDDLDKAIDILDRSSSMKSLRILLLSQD

[4] = molecular target: T3, MEKK3^NPB1 (A6D/L7D) (human) (UniProt Q99759); test: ITC; CCM2^HHD injected into MEKK3^NPB1 in 20 2.5-μl injections at 25 °C; 150 mM NaCl, 50 mM HEPES pH 7.5; nano-ITC; 'observed Kd'; both purified
T3 sequence: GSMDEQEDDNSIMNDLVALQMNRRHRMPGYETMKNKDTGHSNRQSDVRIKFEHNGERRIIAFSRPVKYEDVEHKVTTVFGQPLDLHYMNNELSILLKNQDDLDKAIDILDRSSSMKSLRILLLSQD

[5] = molecular target: T4, MEKK3^NPB1 (D13R) (human) (UniProt Q99759); test: as above
T4 sequence: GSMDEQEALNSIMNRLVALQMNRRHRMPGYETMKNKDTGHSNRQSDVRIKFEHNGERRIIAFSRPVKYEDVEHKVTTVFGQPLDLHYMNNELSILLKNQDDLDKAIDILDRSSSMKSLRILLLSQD

[6] = molecular target: T5, GST–MEKK3^N (human) (UniProt Q99759); test: condition: 60 μg purified CCM2 in a total 500 μl volume; pull-down; GST fusions of MEKK3 immobilised on glutathione Sepharose-4B beads; 5 μl bead slurry and 60 μg purified CCM2 in 500 μl, 4 °C, 2 h; 150 mM NaCl, 50 mM Tris pH 7.5, 0.1% Triton-X100; Coomassie-stained SDS–PAGE of washed beads; both purified
T5 sequence: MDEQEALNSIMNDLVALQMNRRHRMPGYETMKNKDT

[7] = molecular target: T6, GST–MEKK3^PB1 (human) (UniProt Q99759); test: as above
T6 sequence: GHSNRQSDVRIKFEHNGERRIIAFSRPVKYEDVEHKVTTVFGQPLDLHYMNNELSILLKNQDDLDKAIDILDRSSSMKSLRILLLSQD

For “CCM2^HHD (A319D/A320D) (from UniProt Q9BSQ5 283-379) (domain or fragment)”, the binding [1] was “no binding”.

B1: HA–MEKK3^FL (protein, UniProt Q99759 1-626)
chain: MDEQEALNSIMNDLVALQMNRRHRMPGYETMKNKDTGHSNRQSDVRIKFEHNGERRIIAFSRPVKYEDVEHKVTTVFGQPLDLHYMNNELSILLKNQDDLDKAIDILDRSSSMKSLRILLLSQDRNHNSSSPHSGVSRQVRIKASQSAGDINTIYQPPEPRSRHLSVSSQNPGRSSPPPGYVPERQQHIARQGSYTSINSEGEFIPETSEQCMLDPLSSAENSLSGSCQSLDRSADSPSFRKSRMSRAQSFPDNRQEYSDRETQLYDKGVKGGTYPRRYHVSVHHKDYSDGRRTFPRIRRHQGNLFTLVPSSRSLSTNGENMGLAVQYLDPRGRLRSADSENALSVQERNVPTKSPSAPINWRRGKLLGQGAFGRVYLCYDVDTGRELASKQVQFDPDSPETSKEVSALECEIQLLKNLQHERIVQYYGCLRDRAEKTLTIFMEYMPGGSVKDQLKAYGALTESVTRKYTRQILEGMSYLHSNMIVHRDIKGANILRDSAGNVKLGDFGASKRLQTICMSGTGMRSVTGTPYWMSPEVISGEGYGRKADVWSLGCTVVEMLTEKPPWAEYEAMAAIFKIATQPTNPQLPSHISEHGRDFLRRIFVEARQRPSAEELLTHHFAQLMY
In the case of B1, the binding [2] is reported as “binds”.

B2: CCM2^PTB (domain or fragment, UniProt Q9BSQ5 51-251)
chain: GSERVEPDRLLSDYIEKEVKYLGQLTSIPGYLNPSSRTEILHFIDNAKRAHQLPGHLTQEHDAVLSLSAYNVKLAWRDGEDIILRVPIHDIAAVSYVRDDAAHLVVLKTAQDPGISPSQSLCAESSRGLSAGSLSESAVGPVEACCLVILAAESKVAAEELCCLLGQVFQVVYTESTIDFLDRAIFDGASTPTHHLSLHSDDS
For B2, the binding [3] was “no binding”.

B3: CCM2^HHD (domain or fragment, human)
chain: GSSKTISESELSASATELLQDYMLTLRTKLSSQEIQQFAALLHEYRNGASIHEFCINLRQLYGDSRKFLLLGLRPFIPEKDSQHFENFLETIGVKDGRG
notes: CCM2, human, residues 283–379 (harmonin homology domain); also called CCM2 harmonin homology domain; CCM2^HHD: 283–379; source: E. coli Rosetta (DE3), purified (HisTrap, TEV cleavage, size exclusion); not shown: His6, N-terminal, cleaved
For B3, the binding [4] was “no binding”, the binding [5] was “no binding” and the binding [6] was “no binding”. For the same molecule, the binding [7] was “no binding”.
